Consider 37 compounds from the supplement of paper PMC9446081.

In all, about 39,000 compounds went through this assay and about 220 (0.56%) showed activity. The list shows a part of the results.
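Also: static incubation at 37 °C against the wild-type strain, values averaged over two biological replicates.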

The assay has as its system Escherichia coli K-12 BW25113. Put plainly: relative growth (OD600 normalised to plate interquartile mean) (fraction); higher = less growth inhibition, active = 0.2 or less. As to conditions: 50 µM; LB; incubation time: overnight (16-24 h).
As to `O=C1O[C@@H](c2ccccc2)[C@@H](c2ccccc2)N2[C@@H](c3ccc(O)cc3)[C@]3(C(=O)Nc4ccc(C#CCCO)cc43)[C@@H](C(=O)NC[C@H](O)c3ccccc3)[C@H]12`, the relative growth is inactive: 1.02. As for `CC(C)(C)C#CC(=O)C#CC(C)(C)C`, the relative growth was inactive: 1.01.

In the case of `Cc1ccc(S(=O)(=O)N(C)C[C@@H]2OCCCC[C@@H](C)Oc3ccc(NC(=O)Nc4ccc(F)cc4)cc3C(=O)N([C@@H](C)CO)C[C@@H]2C)cc1`, the relative growth is inactive: 1.01.

For the compound `C[C@@H]1CN([C@@H](C)CO)C(=O)c2cc(C#CCc3ccccc3)cnc2O[C@H]1CN(C)C(=O)Cc1cccnc1`, the relative growth was inactive: 0.981.

On to `C[C@H](CO)N1C[C@H](C)[C@@H](CN(C)Cc2ccccc2)Oc2ccc(NC(=O)CCCN(C)C)cc2C1=O`, for which the relative growth was inactive: 1.02. Consider `CO[C@@H]1CN(C)C(=O)c2cc(NS(C)(=O)=O)ccc2OC[C@H](C)N(C(=O)CN(C)C)C[C@@H]1C`, for which the relative growth is inactive: 1.02. Take `C[C@H](CO)N1C[C@H](C)[C@H](CN(C)S(=O)(=O)c2cn(C)cn2)Oc2c(NC(=O)c3ccncc3)cccc2C1=O`: the relative growth is inactive: 1.02. With `CCS(=O)(=O)N1CCOC[C@]2(CC[C@@H](Cn3cncn3)O2)C1`, the relative growth was inactive: 1.02. As for `C[C@H](CO)N1C[C@H](C)[C@H](CN(C)C(=O)C2CC2)OCc2cn(nn2)CCCC1=O`, the figure is inactive: 1.01; as for `C[C@@H]1CN([C@@H](C)CO)C(=O)Cc2cc(NS(C)(=O)=O)ccc2O[C@@H]1CN(C)C`, inactive: 0.875. In the case of `O=C(C[C@H]1C=C[C@H](NC(=O)Nc2cc(F)ccc2F)[C@@H](CO)O1)NCCCN1CCOCC1`, the relative growth is inactive: 1.03. Then `Cc1noc(C)c1S(=O)(=O)Nc1ccc2c(c1)C(=O)N([C@H](C)CO)C[C@H](C)[C@@H](CN(C)C(=O)NC1CCCCC1)O2`, with inactive: 0.992; and `C[C@@H]1CN([C@@H](C)CO)C(=O)c2cc(NC(=O)Nc3ccccc3)ccc2O[C@H]1CN(C)Cc1ccc(C(F)(F)F)cc1`, with inactive: 1.03; and `C[C@H]1CN([C@@H](C)CO)C(=O)c2cc(NC(=O)Nc3ccccc3)ccc2O[C@@H]1CN(C)CC1CCCCC1`, with inactive: 0.978. On to `CNC[C@@H]1OCCCC[C@@H](C)Oc2ccc(NC(=O)CCCN(C)C)cc2C(=O)N([C@H](C)CO)C[C@@H]1C`, for which the relative growth was inactive: 0.996. As to `Cc1noc(C)c1NC(=O)N(C)C[C@@H]1OCCCC[C@H](C)Oc2ccc(NS(=O)(=O)c3cccs3)cc2C(=O)N([C@@H](C)CO)C[C@@H]1C`, the relative growth was inactive: 1. Regarding `C[C@@H]1CN([C@H](C)CO)C(=O)Cc2cc(NC(=O)CCN3CCOCC3)ccc2O[C@@H]1CN(C)S(=O)(=O)c1ccccc1`, the relative growth was inactive: 1.

`CN(C)CC#Cc1ccc([C@@H]2[C@@H](CO)N3C(=O)CN(C(=O)c4cccnc4)C[C@@H]23)cc1`: the relative growth is inactive: 1.02. As to `COc1ccc(S(=O)(=O)Nc2ccc3c(c2)C(=O)N([C@@H](C)CO)C[C@@H](C)[C@H](CN(C)CC2CCCCC2)OCCCC[C@@H](C)O3)cc1`, the relative growth is inactive: 1.03. With `C[C@@H]1CN([C@@H](C)CO)C(=O)c2cc(NC(=O)NC3CCCCC3)ccc2O[C@@H](C)CCCCO[C@@H]1CN(C)Cc1ccncc1`, the relative growth is inactive: 0.983. Regarding `Cc1ccc(S(=O)(=O)Nc2ccc3c(c2)C(=O)N([C@H](C)CO)C[C@H](C)[C@H](CN(C)Cc2ccc(C(=O)Nc4ccccc4N)cc2)OCCCC[C@@H](C)O3)cc1`, the relative growth is inactive: 0.986. On to `CC1Cc2ccccc2N1NC(=O)c1ccc(Cl)c(S(N)(=O)=O)c1` (configuration not stated), for which the relative growth is inactive: 1. On to `Cc1noc(C)c1NC(=O)Nc1ccc2c(c1)C(=O)N([C@@H](C)CO)C[C@H](C)[C@@H](CN(C)S(=O)(=O)c1ccccc1)OCCCC[C@H](C)O2`, for which the relative growth was inactive: 1. `C[C@H](CO)N1C[C@H](C)[C@H](CN(C)Cc2ccccc2)OCCCC[C@H](C)Oc2ccc(NC(=O)Cc3ccccc3)cc2C1=O`: the relative growth was inactive: 1.01.

Consider `CCCNC(=O)N(C)C[C@@H]1Oc2cc(-c3ccccc3F)ccc2S(=O)(=O)N([C@@H](C)CO)C[C@H]1C`, for which the relative growth was inactive: 1.

On to `O=C(O)C1CCCN1` (configuration not stated), for which the relative growth was inactive: 0.976.

As for `Cc1ccc(S(=O)(=O)Nc2ccc3c(c2)CC(=O)N([C@@H](C)CO)C[C@@H](C)[C@@H](CN(C)S(=O)(=O)c2c(C)noc2C)O3)cc1`, the relative growth is inactive: 1.

`Cn1cnc(CCNC(=O)C[C@H]2CC[C@H]3[C@@H](COC[C@@H](O)CN3C(=O)Nc3ccc(C(F)(F)F)cc3)O2)c1`: the relative growth was inactive: 0.935. In the case of `C[C@@H]1CN([C@@H](C)CO)C(=O)c2cc(NC(=O)Nc3cccc4ccccc34)ccc2O[C@@H](C)CCCCO[C@H]1CN(C)Cc1ccc2c(c1)OCO2`, the relative growth was inactive: 0.986. Regarding `C[C@@H]1CN([C@H](C)CO)C(=O)c2cccc(NC(=O)c3cnccn3)c2O[C@@H]1CN(C)S(C)(=O)=O`, the relative growth is inactive: 0.9. On to `COc1ccc(S(=O)(=O)N(C)C[C@H]2OCCCC[C@H](C)Oc3ccc(NS(=O)(=O)c4ccc(Cl)cc4)cc3C(=O)N([C@H](C)CO)C[C@H]2C)cc1`, for which the relative growth was inactive: 1.04.

As to `C[C@H](CO)N1C[C@H](C)[C@H](CN(C)S(C)(=O)=O)Oc2c(NC(=O)CCCCCC(=O)Nc3ccccc3N)cccc2C1=O`, the relative growth is inactive: 1.01. Turning to `C=CCOC(=O)[C@H]1[C@@H]2C(=O)O[C@@H](c3ccccc3)[C@@H](c3ccccc3)N2[C@@H](c2ccc(OCCOC(=O)[C@@H]3C[C@@H]4C(=O)N[C@@H](CC(C)C)C(=O)N4[C@@H]3c3cccc(OCCO)c3)cc2)[C@]12C(=O)Nc1ccccc12`, the relative growth was inactive: 1.02.

Take `Cc1ccc(S(=O)(=O)Nc2ccc3c(c2)C(=O)N([C@@H](C)CO)C[C@@H](C)[C@H](CN(C)S(=O)(=O)c2ccc(F)cc2)O3)cc1`: the relative growth is inactive: 1.02. As to `C[C@@H]1CN([C@@H](C)CO)C(=O)c2cc(NS(=O)(=O)c3ccc(F)cc3)ccc2O[C@@H](C)CCCCO[C@H]1CN(C)S(=O)(=O)c1cn(C)cn1`, the relative growth was inactive: 1.01.

On to `CO[C@@H]1CN(C)C(=O)c2cc(NS(C)(=O)=O)ccc2OC[C@@H](C)N(C(=O)C2CCOCC2)C[C@@H]1C`, for which the relative growth is inactive: 1.01. Take `CC1=NN(C)C(=O)CC1`: the relative growth is inactive: 0.991.
